Screen size: about 420,000 compounds; about 50,000 (12%) were called active. Inconclusive means that the source gave no clear call. Such entries were picked first, then a sample of the others. Calls come from the whole dose curve; as a rule, active = well fitted inhibition curve with a large enough effect; inconclusive = small, poorly fitted or top-dose-only effect; inactive = flat fitted curve, though single readings scatter. Potencies of inconclusive entries are left out as doubtful fits.
Test: qHTS for Inhibitors of human tyrosyl-DNA phosphodiesterase 1 (TDP1): qHTS in cells in presence of CPT; note: nearly all actives have a fitted effect of over 55% in size
Conditions: chicken DT40 Tdp1-/-;hTDP1 cells + 20 nM CPT, ATP luminescence, 48 h; activity change, negative = growth inhibition: at 46.2 µM (top of the series) unless noted
Method in brief: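 Cell growth measured by CellTiter-Glo luminescence after a minimum 48 h, 37 C compound exposure with 20 nM CPT in Tdp1-knockout DT40 cells stably expressing hTDP1, seeded 400/well; qHTS titration format.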
% is set by controls: 0 for no effect and ±100 for the full control effect; potency is the fitted concentration of half-maximal effect; tags give direction and shape of the fitted curve.

Structure (SMILES)	Potency	activity change, negative = growth inhibition
COc1ccc(Cl)cc1Cn1c(C)c(C(=O)NCc2ccc(C#N)cc2)sc1=O	active: 23.1 µM	
CCCCn1c(N)c(N(CCOC)C(=O)COC(=O)COc2ccc(CC)cc2)c(=O)[nH]c1=O	inactive	
Cc1cc(C)c(Nc2ncnc(N)n2)c(C)c1	inactive	
O=C(CNC(=S)N(Cc1ccccc1Cl)C1CCCC1)NCCN1CCOCC1	inactive	
Cc1ccc(Nc2nc(NCc3ccco3)c3ccccc3n2)cc1	active: 2.59 µM	
Cn1cc(CN2CCC(C(=O)NC(c3ccc(F)cc3)c3ccc4ccccc4n3)CC2)c2ccccc21 (stereo not given)	active: 11.6 µM	
Cc1ccccc1OCC(O)Cn1c2ccccc2c2ccccc21 (stereo not given)	inconclusive [inhibitor, single point]	
COc1ccc(C(=O)OCC(=O)NC23CC4CC(CC(C4)C2)C3)c(O)c1	active: 23.1 µM	
O=C(NNC(=O)C12CC3CC(CC(Cl)(C3)C1)C2)c1csc(N2CCOCC2)n1	inactive	
OCCC1CN(Cc2nc(-c3ccccc3)cs2)CCN1Cc1ccc(F)cc1 (stereo not given)	active: 23.1 µM	
O=C(CSc1nc2ccccc2c(=O)n1Cc1ccco1)N1CCN(c2ccccc2)CC1	inconclusive [inhibitor, single point]	
O=C1Nc2ccccc2Oc2cc(Oc3ccccc3)ccc21	inconclusive [inhibitor, single point]	
COc1ccc(OCCN2CCC(C(=O)NC(c3ccc(C)cc3)c3ccccn3)CC2)cc1 (stereo not given)	inactive	
Cc1cc(NC(=O)CSc2nc3cc(C(=O)NCCCOC(C)C)ccc3c(=O)n2Cc2ccco2)no1	active: 18.4 µM	
CC(CC(=O)N1CCc2ccccc21)S(=O)(=O)c1ccc2c(c1)NC(=O)CO2 (stereo not given)	inactive	
CCc1sc(C(=O)N(CCCOC)c2c(N)n(CC(C)C)c(=O)[nH]c2=O)cc1C	inactive	
COc1ccc(NC(=O)Cn2c(SCc3ccc(C)cc3)nc3cccnc32)cc1OC	active: 2.31 µM	
Cc1ccc(C)c(CN2C(=O)c3ccccc3S(=O)(=O)c3ccc(C(=O)OCC4CCCO4)cc32)c1 (stereo not given)	inconclusive [inhibitor, single point]	
CN(Cc1cccs1)C(=O)Cc1csc(-c2ccccc2)n1	inactive	
COc1ccc(NC(=O)c2sc3nc4c(cc3c2N)CN(Cc2ccccc2)CC4)c(OC)c1	inconclusive [inhibitor, single point]	
N=c1c2ccccc2nc2n1CCCCCCCCCCC2	active: 5.17 µM	
c1ccc(Nc2nc(Nc3ccccc3)nc(-n3cccn3)n2)cc1	active: 7.08 µM	
COc1ccc(C2c3cc(OC)c(OC)cc3CC(=O)N2c2ccc(C)cc2)cc1 (stereo not given)	active: 13 µM	
C#CCNC(=O)C1=C[C@H](c2cn(C(C)=O)c3ccccc23)C[C@H](OCc2ccc(CO)cc2)O1	active: 18.4 µM	

Structure (SMILES)	Potency	activity change, negative = growth inhibition
Cc1cccc(Cn2c(=O)n3nc(-c4ccccc4)nc3c3ccccc32)c1	active: 18.4 µM	
CN(CC(=O)Nc1ccc(F)cc1)c1ccc(S(=O)(=O)N2CCCCC2)cc1[N+](=O)[O-]	inconclusive [inhibitor, single point]	
CC(C)c1ccc(S(=O)(=O)c2nnn3c2nc(N2CCCC2)c2sccc23)cc1	inactive	
CCC(C)c1ccc2oc(-c3ccc(NC(=O)c4cc5ccccc5o4)cc3)nc2c1 (stereo not given)	inconclusive [inhibitor, single point]	
N#C/C(=C\c1ccc(N2CCOCC2)cc1)c1ccccc1	active: 20.6 µM	
N#CC[C@H](c1ccccc1)N1CCN(Cc2ccccc2)CCC1=O	inactive	
Cc1ccc(-c2nc3c(C)cc(Br)cn3c2Cc2ccsc2)cc1	active: 18.4 µM	
Cc1cc(C)cc(Cn2c(C)c(C(=O)N(C)Cc3ccc(F)cc3)sc2=O)c1	inconclusive [inhibitor, single point]	
CCN1CCCC(OC(=O)c2cc(-c3ccc(C)cc3)nc3ccccc23)C1 (stereo not given)	inconclusive [inhibitor, partial curve, poor fit]	
CCOc1ccccc1N1CCN(C(=O)/C=C/c2cccc([N+](=O)[O-])c2)CC1	inconclusive [inhibitor, single point]	
CCCCN1CC(=O)N2[C@H]3c4cc(Br)ccc4OC[C@@H]3[C@H](C(=O)OCC)[C@]2(C)C1=O	inconclusive [inhibitor, single point]	
Cc1ccc(-c2csc(NC(=O)CSc3nc(C)cs3)n2)cc1	inconclusive [inhibitor, single point]	
NN=C(NN=Cc1ccccc1)c1ccccc1	active: 8.2 µM	
O=C(c1ccccc1F)N1CCN(C2CCC(c3ccccc3)CC2)CC1 (stereo not given)	inconclusive [inhibitor, single point]	
CCn1c(Cc2ccccc2)nnc1SCC(=O)Nc1ccc2c(c1)OCCO2	inactive	
C[C@H](NC(=O)C1CC(=O)N(c2ccc3c(c2)OCO3)C1)C(=O)NC1CCCC1 (stereo not given in full)	inconclusive [inhibitor, single point]	
COc1ccccc1/C=C/C(=O)Oc1cccc2cccnc12	inconclusive [inhibitor, single point]	
CN(CC(=O)Nc1ccc(Cl)c(C(F)(F)F)c1)C(=O)C1CC(=O)N(CCc2ccccc2)C1 (stereo not given)	inconclusive [inhibitor, single point]	
CC(C)=CCN1CCN(CCCc2ccccc2)CC1CCO (stereo not given)	inactive	
CC(Oc1cc2oc(=O)c3c(c2cc1Cl)CCC3)C(=O)NCCN1CCOCC1 (stereo not given)	inactive	
COc1ccc(C2NN=C(c3c[nH]c4ccccc34)C2O)cc1 (stereo not given)	inconclusive [inhibitor, single point]	
CCCSc1nnc(-c2c[nH]c3ccccc23)n1CC	active: 14.6 µM	
Cc1ccc2cc(C#N)c(N3CCN(C(=O)c4ccccc4)CC3)nc2c1	active: 20.6 µM	
Cc1cc(C)cc(NC(=O)C2(c3ccccc3)CC2(Cl)Cl)c1 (stereo not given)	inconclusive [inhibitor, single point]	

Structure (SMILES)	Potency	activity change, negative = growth inhibition
O=C(NCc1ccc2c(c1)OCO2)c1ccc2c(c1)S(=O)(=O)c1ccccc1C2=O	inconclusive [inhibitor, single point]	
O=C(Cc1ccc(S(=O)(=O)N2CCOCC2)s1)Nc1ccccc1N1CCOCC1	inconclusive [inhibitor, single point]	
COc1cccc(NC(=O)CSc2nn3c(=O)c(C)nnc3s2)c1	inactive	
Cc1ccc(-n2nc(C)c3c2OC(N)=C(C#N)C3c2ccc(F)cc2)cc1 (stereo not given)		inconclusive: -32.1% [inhibitor]
COCC(=O)N1CCCC(C(=O)c2ccc(Oc3ccccc3)cc2)C1 (stereo not given)	inconclusive [inhibitor, partial curve]	
CS(=O)(=O)N(Cc1ccccc1Cl)c1ccc(C(=O)NCc2cccnc2)cc1	active: 23.1 µM	
O=C(CSC(=S)N1CCCCC1)Nc1nc(-c2ccccc2)c(-c2ccccc2)o1	inconclusive [inhibitor, single point]	
CC(C)NC(=O)N(C)C[C@H]1Oc2c(NC(=O)Nc3ccc4c(c3)OCO4)cccc2C(=O)N([C@H](C)CO)C[C@@H]1C	inconclusive [inhibitor, single point]	
O=C(N/N=C/c1cc([N+](=O)[O-])ccc1O)NC12CC3CC(CC(C3)C1)C2	inconclusive [inhibitor, single point]	
O=C(O)c1cc(O)c2c(c1)[C@H]([C@H]1c3cc(C(=O)O)cc(O)c3C(=O)c3c(O[C@@H]4O[C@H](CO)[C@@H](O)[C@H](O)[C@H]4O)cccc31)c1cccc(OC3O[C@H](CO)[C@@H](O)[C@H](O)[C@H]3O)c1C2=O (stereo not given in full)	active: 14.6 µM	
COc1ccc(-c2nc3ccc(NC(=O)CO)cc3c(=O)n2Cc2cccc(Cl)c2)cc1COc1ccc(NC(C)=O)cc1	active: 11.2 µM	
CC(=O)c1ccc(N2CCN(S(=O)(=O)c3ccc4ccccc4c3)CC2)cc1		inconclusive: -32.7% [inhibitor]
O=C(/C=C/c1ccc(Cl)cc1)Nn1c(-c2cccs2)nc2ccccc2c1=O	inconclusive [inhibitor, single point]	
CCCCc1nc2cc(C(=O)N(C)CCc3cn[nH]c3)ccc2o1	inconclusive [inhibitor, single point]	
Cc1cc2c(NC(=O)Nc3ccccc3)cccc2nn1	inactive	
O=C(Oc1coc(CSc2nnc(NC(=O)C3CC3)s2)cc1=O)c1ccccc1	inactive	
COc1ccc(OC)c(S(=O)(=O)Nc2ccc3oc4c(c3c2)C(=O)CCC4)c1		inconclusive: -33.9% [inhibitor]
O=C(Nc1cccc(S(=O)(=O)Nc2ccccc2F)c1)c1ccc2ccccc2n1	inconclusive [inhibitor, single point]	
Cc1cccc(OC(C)C(=O)Nc2cc(S(=O)(=O)N3CCCCC3)ccc2C)c1 (stereo not given)	inconclusive [inhibitor, single point]	
COC(=O)[C@]1(Cc2ccccc2)N[C@H](CN(C)S(=O)(=O)c2ccc(F)cc2)[C@@H]2C(=O)N(Cc3ccccc3)C(=O)[C@@H]21	inconclusive [inhibitor, single point]	
O=C(CC1N=C2c3ccccc3N=C(SCc3ccc(F)cc3)N2C1=O)NCc1ccc2c(c1)OCO2 (stereo not given)	inconclusive [inhibitor, single point]	
CCCCNC1C(CC)C(CCC)C(C#N)(C#N)C1(C#N)C#N (stereo not given)	active: 13 µM	
